Measurements from PubChem BioAssay AID463173 (ICCB-Longwood Screening Facility, Harvard Medical School, 2010).
The whole screen tested about 52,000 compounds, of which about 1,700 (3.3%) were called active. No stated cut-off is given here; in the data, active means survival mostly below about 52% (no sharp cut-off); inactive means mostly above about 56%. Some of the results follow.

The molecules below were run on Wild type (assay: growth inhibition of S. aureus wild type versus tarO mutant, primary screen, teichoic acid synthesis inhibitors, RN4220, OD600 (AID 463173)). Details: S. aureus RN4220 wild type/DeltatarO growth, OD600, 18 h, hits give low values, screened at 18.75 µg/mL (by protocol).
With COc1cccc(NC(=O)/C(C#N)=C/c2ccc(-c3ccc(C)cc3)o2)c1 the survival was inactive: 58%.
For Cc1ccc2cc3cc(C(=O)N4CCN(c5ccccc5)CC4)sc3nc2c1, the survival was inactive: 84%.
In the case of O=C(Cn1cc(S(=O)(=O)Cc2cccc(Cl)c2)c2ccccc21)NCc1ccccc1Cl, the survival is reported as inactive: 77%.
Cc1ccc(S(=O)(=O)Nc2cccc(-c3ccc(N4CCCC4)nn3)c2)c(C)c1 was tested, and the survival was inactive: 63%.
For CCCNc1ncnc2c1c(-c1ccccc1)cn2-c1ccccc1, the survival was inactive: 71%.
CCn1cc(C(=O)N2CCN(c3cccc(C)c3)C(C)C2)c(=O)c2cc(S(=O)(=O)N3CCOCC3)ccc21 (configuration not stated) was tested, and the survival was inactive: 90%.
With Nc1nc(Nc2cccc3ccccc23)nc(C2CCCC2=O)n1 (configuration not stated) the survival was inactive: 102%.
For COc1ccc(-c2nsc(NC(=O)c3oc4ccccc4c3C)n2)cc1, the survival was inactive: 99%.
In the case of CN(C)c1ccc(CNC(=O)CCCN2C(=O)CCn3nc(-c4cn(C)c5ccccc45)cc32)cc1, the survival is reported as active: -1%.
In the case of COCCn1c(C)cc(O)c(C(c2ccccc2Cl)N2CCCCC2)c1=O (configuration not stated), the survival is reported as inactive: 73%.
For CCCN1CCN(CCCNC(=O)c2cc3c(s2)-c2ccccc2OC3)CC1, the survival was inactive: 83%.
In the case of N#Cc1ccccc1OCC(=O)N1CCN(c2ccccc2)CC1, the survival is reported as inactive: 82%.
With Cc1coc2c(C)c3oc(=O)c(CCC(=O)N4CCCCC4)c(C)c3cc12 the survival was inactive: 67%.
In the case of Cc1nc2c(c(C)c1CCC(=O)Nc1ccc(F)cc1)c(=O)n(C)c(=O)n2C, the survival is reported as inactive: 73%.
With Cc1c(NS(=O)(=O)c2ccc(Cl)cc2)c(=O)n(-c2ccccc2)n1C the survival was inactive: 75%.
In the case of Cc1ccc(Cn2cc(CCC(=O)NCC(C)c3ccccc3)c3ccccc32)cc1 (configuration not stated), the survival is reported as inactive: 109%.
For COc1ccc(NC(=O)Cn2nnc(-c3nc(-c4ccncc4)no3)c2N)cc1OC, the survival was inactive: 92%.
For Cc1cccc(C)c1NC(=O)C1CCCN1S(=O)(=O)c1cccc2nsnc12 (configuration not stated), the survival was inactive: 67%.
For COc1ccc(C2=NN(CCC(=O)NCCc3ccccc3)C(=O)CC2)cc1, the survival was inactive: 127%.
COCCn1c(C)cc(O)c(C(c2ccccc2F)N2CCN(c3ccccc3)CC2)c1=O (configuration not stated) was tested, and the survival was inactive: 71%.
With COc1ccccc1CCNC(=O)C(=O)NCC(c1cccnc1)N1CCN(c2ccccc2)CC1 (configuration not stated) the survival was inactive: 82%.
In the case of CCc1cccc(-n2nnc(S(=O)(=O)c3ccc(OC)cc3)c2C)c1, the survival is reported as inactive: 81%.
In the case of Cc1ccc(NC(=O)c2cccc(NC(=O)N3CCSc4ncccc43)c2)cc1F, the survival is reported as inactive: 92%.
CCOc1ccc(CNC(=O)c2ccc(NC(=O)N3CCSc4ncccc43)cc2)cc1 was tested, and the survival was inactive: 63%.
In the case of CCN(CC)CCCNC(=O)CCc1c(C)nc2c(c1C)c(=O)n(C)c(=O)n2C, the survival is reported as inactive: 76%.
For COc1ccc(-c2cc(C(F)(F)F)nc(SCC(=O)Nc3ccc(O)cc3)n2)cc1OC, the survival was inactive: 75%.
Cc1ccc(C)c(NC(=O)c2cnc3sc(N4CCOCC4)nn3c2=O)c1 was tested, and the survival was inactive: 135%.
CCCN1C(=O)c2oc3cc(C)cc(C)c3c(=O)c2C1c1ccc(F)cc1 (configuration not stated) was tested, and the survival was inactive: 82%.
COc1ccc(-c2nc3cc(NC(=O)COc4ccc(C)c(C)c4)ccc3o2)cc1 was tested, and the survival was inactive: 84%.
For Cc1cc(=O)c2cc(C(=O)Nc3cccc(C)c3C)ccc2[nH]1, the survival was inactive: 85%.
CCOC(=O)c1ccc(NC(=O)CN2C(=O)c3cccnc3Sc3ccccc32)cc1 was tested, and the survival was inactive: 66%.
With COc1ccc(Nc2ncc(C(=O)N3CCN(c4ccccc4OC)CC3)c3ccccc23)cc1 the survival was inactive: 78%.
CCOc1ccc(C(=O)NCCc2sc(-c3ccc(F)cc3)nc2C)cc1 was tested, and the survival was inactive: 97%.
With Cc1ccc(S(=O)(=O)Cn2nnnc2C(C(C)C)N2CCSCC2)cc1 (configuration not stated) the survival was inactive: 113%.
Cc1ccccc1Cn1c(=O)n(CCCCCC(=O)NCc2ccc3c(c2)OCO3)c(=O)c2sccc21 was tested, and the survival was inactive: 95%.
With O=C(Cn1ncc2c3ccccc3n(Cc3cccc(Cl)c3)c2c1=O)NCCC1=CCCCC1 the survival was inactive: 82%.
For Nc1ccc2c(c1)C(=O)N(CCCCN1C(=O)c3ccc(N)cc3C1=O)C2=O, the survival was inactive: 111%.
For COc1ccc(NC(=O)CSc2ncc3c(n2)-c2ccccc2N(C)S3(=O)=O)cc1Cl, the survival was inactive: 101%.
For CCN(CC)c1ccc(CNS(=O)(=O)c2cc3c(cc2C)NC(=O)CO3)cc1, the survival was inactive: 73%.
CCOc1ccc(NC(=O)Nc2c[nH]c(=O)[nH]c2=O)cc1 was tested, and the survival was inactive: 81%.
With Cn1c(SCc2ccccc2Cl)nc(=O)c2c1NC(=O)CC2c1cc(F)ccc1F (configuration not stated) the survival was inactive: 75%.
CCOC(=O)c1ccccc1NC(=O)Cn1c(=O)n(-c2ccc(CC)cc2)c(=O)c2c(C)c(C(=O)N(C)C)sc21 was tested, and the survival was active: -2%.
With CCOc1ccccc1CNC(=O)c1ccc2c(c1)nc1n2CCC(C)C1 (configuration not stated) the survival was inactive: 127%.
In the case of Cc1ccc(S(=O)(=O)N2Cc3ccccc3CC2C(=O)N2CCCCC2)cc1 (configuration not stated), the survival is reported as inactive: 112%.
For Cc1ccc(CSc2cn(CCNC(=O)c3cccs3)c3ccccc23)cc1, the survival was inactive: 62%.
Cc1ccc(N2CC(NC(=O)c3ccccc3Br)CC2=O)cc1 (configuration not stated) was tested, and the survival was inactive: 76%.
O=C(Nc1ccc(F)c(Cl)c1)C1CCN(S(=O)(=O)c2ccc3c(c2)CCCN3C(=O)C2CCC2)CC1 was tested, and the survival was inactive: 67%.
With CC(=O)c1ccc(N2C(=O)Nc3ccccc3S2(=O)=O)cc1 the survival was inactive: 111%.
In the case of Cc1nccn1S(=O)(=O)c1c(C(C)C)cc(C(C)C)cc1C(C)C, the survival is reported as inactive: 119%.
CC(C)Sc1nc2sc3c(c2c(=O)n1-c1ccccc1)CCCC3 was tested, and the survival was active: -2%.
Nc1ncc(S(=O)(=O)Nc2ccc(OC(F)(F)F)cc2)cn1 was tested, and the survival was inactive: 63%.
With O=C(Cn1c(SCC(=O)Nc2ccc(F)cc2)nc2ccccc21)NCc1ccc(Cl)cc1 the survival was inactive: 85%.
For O=C(Nc1ccc(F)cc1)c1ccc2c(c1)NC(=O)c1ccccc1S2, the survival was inactive: 54%.
In the case of CN(Cc1ccco1)S(=O)(=O)c1nnc(NC(=O)c2ccccc2)s1, the survival is reported as inactive: 28%.
For Cc1cccc(-c2noc(-c3ccc(NCc4cccnc4)c([N+](=O)[O-])c3)n2)c1, the survival was inactive: 81%.
For Nc1nonc1-c1nc2ccccc2n1CC(=O)Nc1cccc(Cl)c1Cl, the survival was inactive: 85%.
With CCc1cccc(NC(=O)Cn2ccn3nc(-c4ccc(OC)c(OC)c4)cc3c2=O)c1 the survival was inactive: 82%.
